Here are results for one molecule from patent US20170106058A1, “PHARMACEUTICAL COMPOSITION AGAINST CHRONIC BACTERIAL INFECTIONS” (Lysando AG, priority 2014, published 2017).

This assay has as its system A. baumannii RUH134 persisters. Nature of the assay: Persister killing assay, isolated persister fraction of A. baumannii RUH134. In kind it is cell-based, Acinetobacter baumannii. The conditions noted are these: 30× MIC. From the text:
Planktonic persister cells were isolated from a stationary-phase culture as described previously (Liebens V, Defraine V, Van der Leyden A, De Groote V N, Fierro C, Beullens S, Verstraeten N, Kint C, Jans A, Frangipani E, Visa P, Marchal K, Versées W, Fauvart M, Michiels J. 2014. A putative de-N-acetylase of the PIG-L superfamily affects fluoroquinolone tolerance in Pseudomonas aeruginosa. Pathogen. Dis. 71:39-54.) with minor modifications. An overnight culture of P. aeruginosa PA14, PAl255 (a cystic fibrosis isolate), Escherichia coil UTI-89 (isolate from chronic urinary tract infection) and Acinetobacter baumannii RUH134 (reference strain for global clone 2) was diluted 100×in 50 ml 1:20 Trypticase soy broth (TSB). After overnight growth at 37° C., the cultures were treated with either 10 μg/ml ofloxacin (P. aeruginosa strains), 200 μg/ml tobramycin (A. baumannii) or 200 μg/ml amikacin (E. coli) for 5 h at 37° C., while shaking at 200 rpm. The antibiotic concentrations were chosen to allow only persister cells to survive, based on previous time-kill curves. The persister fractions were isolated by centrifugation (5,250× g for 15 min at 4° C.), and the cell pellet was washed twice with 20 mM HEPES (pH 7.4). Prior to treatment, the cells were resuspended in a ten-fold reduced volume of 20 mM HEPES (pH 7.4) to concentrate the persisters.
A persister killing assay was performed as described previously (Liebens et al., 2014), with minor modifications. A volume of 100 μl of the isolated persister fraction was mixed with either the polypeptide according to SEQ ID NO: 124, 125, 126 or ciprofloxacin (final concentrations of 10× or 30× MIC against the respective strains), in the absence or presence of 0.5 mM EDTA-Na2 (final concentration) up to a final volume of 200 μl. Control treatments with 20 mM HEPES (pH 7.4), 0.5 mM EDTA, or ofloxacin/tobramycin/amikacin (30× and 10× MIC) were performed in parallel. […] The number of persisters was determined after 72 h of incubation to allow for complete resuscitation of all surviving persisters.

B1: SEQ ID NO: 125: polypeptide according to SEQ ID NO: 125, comprising a peptidoglycan hydrolase (protein)
chain: MGGLKKLGKKLEGAGKRVFNAAEKALPVVAGAKALRKGSKNSEKNASIIMSIQRTLASLSLYGGRIDGLFGEKCRGAIILMLNKVYPNFSTNKLPSNTYEAESVFTFLQTALAGVGLYTITIDGKWGGTSQGAIDALVKSYRQITEAERAGSTLPLGLATVMSKHMSIEQLRAMLPTDRQGYAEVYIDPLNETMDIFEINTPLRIAHFMAQILHETACFKYTEELASGKAYEGRADLGNTRPGDGPLFKGRGLLQITGRLNYVKCQVYLREKLKDPTFDITSSVTCAQQLSESPLLAALASGYFWRFIKPKLNETADKDDIYWVSVYVNGYAKQANPYYPNRDKEPNHMKERVQMLAVTKKALGIVLEHHHHHH
modifications: CecropinA(A. aegyptii)-OBPlyshis
As for B1, for the setting “alone, without EDTA”, the “effect on persisters” value is recorded as “did not strongly affect persisters”. Besides, where the note is “with 0.5 mM EDTA”, the “effect on persisters” value is on record as “strong reduction” and the “reduction of persisters in comparison to 0.5 mM EDTA/Tobramycin control” value is “approximately 1.8 log”.
